According to PubChem BioAssay AID1159614 (National Center for Advancing Translational Sciences (NCATS), 2016):
About 65 (0.1%) of roughly 45,000 compounds were called active. The call rests on the fitted dose curve; in most records, active means well fitted activation curve with a large enough effect; inconclusive means small, poorly fitted or top-dose-only effect; inactive means no such curve, though single readings can be large or run the other way. The list shows a part of the results.

Target: Galactocerebrosidase (Homo sapiens) (UniProt P54803)
Assay: A Novel Cell-Based Assay to Identify Small Molecules for B -Galactocerebrosidase; further: 0% is about no effect; nearly all actives have a fitted effect of over 65% in size
Settings: 145M-Twi-hGALC-G270D cells (Twitcher mouse brain line with human GALC G270D), HMU-beta-Gal fluorescence, 48 h; series mostly up to 57.5 µM; activation: at the top concentration
Summary of the method: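 Brain-derived Twitcher mouse 145M-Twi cells stably expressing human GALC-G270D or wild-type GALC, treated live, then residual GALC activity read by fluorescence of HMU-b-Gal substrate (0.1 mM final) in citrate-phosphate buffer pH 5.2 with sodium taurocholate. Signal increase indicates enhancement.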

Chain of UniProt P54803 (P54803 whole entry, looked up): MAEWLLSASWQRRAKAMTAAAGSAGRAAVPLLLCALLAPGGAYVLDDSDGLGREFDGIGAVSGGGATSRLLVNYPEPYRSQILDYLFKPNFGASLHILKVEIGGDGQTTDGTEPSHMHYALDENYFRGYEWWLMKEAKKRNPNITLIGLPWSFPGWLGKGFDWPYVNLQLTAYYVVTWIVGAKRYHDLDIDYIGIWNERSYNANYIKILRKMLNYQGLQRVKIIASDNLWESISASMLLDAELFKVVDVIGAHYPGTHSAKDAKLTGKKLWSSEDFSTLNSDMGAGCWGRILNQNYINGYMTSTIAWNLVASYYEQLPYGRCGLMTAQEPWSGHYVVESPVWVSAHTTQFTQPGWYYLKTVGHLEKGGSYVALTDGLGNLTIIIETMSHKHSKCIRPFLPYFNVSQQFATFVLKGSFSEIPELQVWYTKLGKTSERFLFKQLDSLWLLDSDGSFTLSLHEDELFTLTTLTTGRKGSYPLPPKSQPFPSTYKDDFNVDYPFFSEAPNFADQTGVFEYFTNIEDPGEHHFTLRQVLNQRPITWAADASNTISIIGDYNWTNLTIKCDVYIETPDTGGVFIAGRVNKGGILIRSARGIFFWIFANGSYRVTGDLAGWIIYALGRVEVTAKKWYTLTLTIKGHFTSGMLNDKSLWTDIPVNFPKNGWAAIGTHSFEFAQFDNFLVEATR

activation, inactive:
CSCCC(NS(=O)(=O)c1ccc2c(c1)oc(=O)n2C)C(=O)N1CCN(c2cc(C)ccc2C)CC1 (stereo unspecified) -33%
CC(C)(C)c1ccc(C(=O)NCCc2csc3nc(-c4ccccc4F)nn23)cc1 3.13%
CCc1c2c(nc3ccc(OC(=O)N4CCC(N5CCCCC5)CC4)cc13)-c1cc3c(c(=O)n1C2)COC(=O)[C@]3(O)CC -5.07%
CCOc1ccccc1NC(=O)CSc1nc(=O)[nH]c2c1CCCC2 -33.6%
O=C(CS(=O)(=O)c1cccc2nsnc12)Nc1ccccc1 -12.2%
O=S(=O)(Nc1ccccc1C(F)(F)F)c1ccc(N2CCCCS2(=O)=O)cc1 19.9%
CCCOc1cccc(NC(=O)c2c(-c3ccccc3Cl)noc2C)c1 -20.9%
COc1cc(/C=C/c2nc(C#N)c(N3CCCCCC3)o2)cc(OC)c1OC -29.6%
COc1ccc(OC)c(NC(=O)Cn2cnc3ccc(S(=O)(=O)N4CCC(C)CC4)cc3c2=O)c1 -18.1%
O=C(Nc1cc(-c2nc3ccccc3s2)ccc1Cl)c1cc2ccccc2o1 0.024%
CN(Cc1ccccc1)C(=O)c1ccc2c(c1)N(Cc1ccccc1F)C(=O)c1ccccc1S2(=O)=O 7.7%
Cc1ccc(-c2nc3sc(CCNS(=O)(=O)c4cc(F)ccc4F)c(C)n3n2)cc1 -4.37%
Cc1ccc(Cl)cc1-n1c(=O)cc(N2CCN(c3ccc(F)cc3)CC2)[nH]c1=O -15.9%
Cc1cc(C)c2oc(C(=O)Nc3ccc(S(=O)(=O)N4CCCCC4)cc3)cc(=O)c2c1 -0.335%
CC(=O)N(Cc1cccnc1)c1nc2c(F)cc(F)cc2s1 -11.7%
Cc1cccc(C)c1NC(=O)Cn1c(=O)n(Cc2ccccc2)c(=O)c2c(C)c(C(=O)N(C)C)sc21 -4.71%
COc1ccc(Cl)cc1NS(=O)(=O)c1ccc2[nH]c3c(c2c1)CCCC3 -4.78%
Cn1c(=O)c2c(-c3ccc(Cl)cc3)n(Cc3ccccc3)cc2n(C)c1=O -38.8%
O=C(O)Cn1nnc(-c2ccc(OCc3cccc(C(F)(F)F)c3)cc2)n1 -32.9%
COc1ccc(Cn2c(CCC(=O)NCc3cccc(Cl)c3)nc3cccnc32)cc1 -21.7%
CCOC(=O)c1[nH]c(C)c(CCC(=O)NCc2ccc(N(C)C)cc2)c1C 1.03%
COc1ccc(S(=O)(=O)NCCc2cc3ccc(C)c(C)c3[nH]c2=O)cc1 -36.2%
CCOC(=O)c1cc(S(=O)(=O)Nc2ccc(C)cc2Cl)[nH]n1 -13%
COc1cccc(NC(=O)C2CCC(CNS(=O)(=O)c3ccc4c(c3)CC(C)N4C(C)=O)CC2)c1 (stereo unspecified) -12.4%
COc1ccc(CNC(=O)CSc2nc3ccccc3nc2Cc2ccccc2)cc1 -1.23%
O=C(CSc1nccn1Cc1ccco1)Nc1ccc(F)cc1 -12.5%
CCOC(=O)CC(NC(=O)Cn1nnc(-c2ccc(C(F)(F)F)cc2)n1)c1ccc(OC)cc1 (stereo unspecified) -10.4%
CCCC1=Nc2cc(C(=O)NC3CCCC3)ccc2Sc2ccc(C)cc21 -28.7%
COc1cccc2c1cc1c(=O)n(CC(=O)N3CCN(c4cccc(C)c4)C(C)C3)nc(C)n12 (stereo unspecified) -8.82%
Cc1cc(C)cc(NC(=O)CSc2cc(C)[nH]c(=O)n2)c1 -1.73%
COc1ccc(C)cc1NC(=O)c1ccc2c(SCC(=O)O)c3c(nc2c1)CCCC3 -14.4%
CCOc1ccc(NC(=O)C2CC(=O)N(c3ccc(C(C)C)cc3)C2)cc1 (stereo unspecified) -14.6%
COc1ccc(NC(=O)c2sc3nc[nH]c(=O)c3c2C)cc1Cl -26.4%
Cn1c(=O)n(-c2ccc3c(c2)OCO3)c2nc(-c3ccccc3)nc(C(N)=O)c21 -18.9%
COc1ccc(C(=O)N2CCN(Cc3cc(=O)n4nc(-c5ccccc5C)sc4n3)CC2)cc1OC 18.7%
CC(=O)Nc1ccc(-c2cc(C(=O)O)c3c(-c4ccccc4)[nH]nc3n2)cc1 -4.46%
COc1cc(CN(C(=O)COc2ccc(C)cc2)c2ccccn2)cc(OC)c1OC -40.3%
Cc1cccc(NC(=O)C2CCN(S(=O)(=O)c3ccc(F)cc3)CC2)c1C -14.3%
CCCCNC(=O)c1nn(-c2ccc(CC)cc2)nc1CO -0.267%
COc1cccc(CN(C(=O)c2oc3cc(C)ccc3c2C)C2CCS(=O)(=O)C2)c1 (stereo unspecified) -21.4%
CCN(CC)CC(C)CNC(=O)c1cc(-c2ccc(Br)s2)nc2ccccc12 (stereo unspecified) -10.1%
CCOC(=O)c1ccc(NS(=O)(=O)c2ccc3c(c2)n(C)c(=O)n3C)cc1 -21.9%
CC1CCC(NC(=O)c2ccc3c(c2)N(Cc2cccc(Cl)c2)C(=O)c2ccccc2S3(=O)=O)CC1 (stereo unspecified) -13%
CCCn1c(=O)sc2cc(NC(=O)COc3ccc(Cl)cc3)ccc21 -8.31%
CCc1ccccc1NC(=O)Cn1nnc(C(=O)NCc2ccccc2Cl)c1N -19.6%
COc1ccc(CCNC(=O)c2ccc3c(c2)c(C)c(C)n3Cc2ccc(F)cc2)c(OC)c1OC 1.5%
COc1ccc(-c2nc(CSCC(=O)N3CCN(c4cccc(C)c4C)CC3)c(C)o2)cc1OC -9.85%
COc1cccc(-n2c(=O)c3c4c(sc3n(Cc3ccc(C)cc3)c2=O)CCCC4)c1 0.137%
Cc1ccc2nc(-c3ccccc3F)c(Nc3ccc(Cl)cc3)n2c1 -4.34%
COc1ccc(-c2nc3c4ccccc4n(CC(=O)N4CCN(c5ccccc5OC)CC4)c(=O)n3n2)cc1 -19%
CCN(CC)CCCNC(=O)CN1C(=O)CCn2nc(-c3cn(C)c4ccccc34)cc21 -9.63%
Cc1ccc(C(=O)c2cn(CC(=O)NC3CCCCC3)c3nc(C)ccc3c2=O)cc1 -13.5%
Cc1c(C(=O)N2CCCC2)oc2c1-c1nn(CC(=O)NCCCOC(C)C)cc1CC2 1.86%
COc1cccc(C(=O)Nc2ccccc2C(=O)OCc2cc(=O)n3nc(C4CC4)sc3n2)c1 -11.7%
Cc1nnc(NC(=O)CSCc2cc(=O)c3cc(Cl)ccc3[nH]2)s1 7.35%
O=S(=O)(NCc1ccc(F)cc1)c1ccc(-c2cnc(C3CC3)o2)cc1 -13.4%
O=C(Nc1cc2c(cc1C(=O)c1ccccc1)OCCO2)c1ccc(Br)cc1 -4.73%
O=C(c1cccn1-c1nnc(N2CCCC2)s1)N1CCN(c2ccccc2)CC1 -3.21%
CN(C)CCN(Cc1ccccc1)S(=O)(=O)c1ccc2[nH]c(=O)ccc2c1 -14.3%
O=C(NC1CC(=O)N(c2cccc(F)c2)C1)C1CCCC1 (stereo unspecified) -1.46%
Cc1c(C)c2c(cc(C)c3c(-c4ccccc4)coc32)oc1=O -24.5%
COc1ccccc1-n1ncc2c(=O)[nH]c(SCC(=O)Nc3ccc(Cl)cc3)nc21 -2.17%
Cc1ccc(CNC(=O)c2cccn2-c2nnc(N3CCCCC3)s2)cc1 -16.3%
COc1cc(-c2nc(Cn3nnc(C(=O)Nc4ccccc4)c3C)c(C)o2)cc(OC)c1OC -13.5%
COc1cccc(-n2cc(C(=O)NCCc3ccc(C)cc3)c3ccccc3c2=O)c1 6.34%
COc1ccc2oc(=O)c(-c3csc(-c4ccc(Br)cc4)n3)cc2c1 -27.2%
CCOC(=O)COc1ccc2c(C)c(CCN(CC)CC)c(=O)oc2c1Cl -13.4%
Cc1ccccc1-c1nc(SCC(=O)NCc2ccco2)c2c(=O)n(C)c(=O)n(C)c2n1 -19.9%
Cc1ccc(CCNC(=O)CS(=O)Cc2nc(-c3ccccc3C)oc2C)cc1 (stereo unspecified) -14.3%
CCN(Cc1ccccc1)C(=O)Cn1c(=O)n(-c2ccc(Cl)cc2)c(=O)c2c(C)c(C(=O)N(C)C)sc21 -3.47%
CCCCN(C)S(=O)(=O)c1ccc(C(=O)Nc2sc3c(c2C(N)=O)CC(C)(C)NC3(C)C)cc1 -23.2%
CCCc1ccc(-c2ccc(C(=O)Oc3ccc(OCC)cc3)cc2)nc1 4.72%
CCCc1ncc(C(=O)O)s1 -6.1%
O=C(Cn1ncc2c3ccccc3n(Cc3cccc(Cl)c3)c2c1=O)NCc1cccs1 -10.9%
CCc1ccc(OCc2nc(-c3ccc(OC)cc3)no2)c(Br)c1 -9.67%
O=C(Cn1cnc2c(oc3ccccc32)c1=O)Nc1ccc(F)cc1F -17.1%
O=C(CSc1nc2c(oc3ccccc32)c(=O)n1Cc1ccco1)Nc1ccccc1Cl -4.11%
O=S(=O)(c1ccc2nc(NCc3ccccc3Cl)ccc2c1)N1CCCCC1 -17%
O=C(Nc1nc2ccccc2s1)c1ccc(S(=O)(=O)N2CCCC2)cc1 -6.69%
CC(CNC(=O)c1ccc(CSc2nc3ccncc3n2Cc2ccccc2)cc1)c1ccccc1 (stereo unspecified) 4.74%
COc1ccc(CNC(=O)CSc2nc(-c3ccc(OC)c(OC)c3)cc(C(F)(F)F)n2)cc1 -9.17%
COc1cc(Cl)c(NS(=O)(=O)c2ccc(-c3cnc(C4CC4)o3)cc2)c(OC)c1 -20%
CCS(=O)(=O)c1nc(S(=O)(=O)c2ccc(C)cc2)c(NCCCOC)s1 -16.6%
CCOC(=O)c1cc(S(=O)(=O)N2CCN(c3ccc(C(C)=O)cc3)CC2)[nH]n1 14.9%
CCCC12CN3CC(CCC)(CN(C1)C3c1ccccc1)C2=O (stereo unspecified) -17.6%
CCOC(=O)c1ccc(NC(=O)NCCOCCn2c(=O)oc3ccccc32)cc1 -7.37%
COc1ccccc1NC(=O)C1CCN(C(=O)c2sc3nc[nH]c(=O)c3c2C)CC1 -30%
O=C(Nc1ccccc1Br)C(Cc1ccccc1)NS(=O)(=O)c1cccc2nsnc12 (stereo unspecified) -14.2%
CCN(CC)CCNC(=O)c1ccc2nc(CCc3ccccc3)oc2c1 -9.6%
CC(=O)c1ccc(NC(=O)c2ccc(-c3ccc(Cl)cc3)o2)cc1 15.2%
CCn1c(CNC(=O)c2ccc(OC)cc2)nnc1SCC(=O)Nc1ccc(C)cc1 2.13%
Cc1cc2oc3c(c(=O)c2cc1C)C1(C(=O)N(C)c2ccccc21)N(CCO)C3=O (stereo unspecified) -1.74%
COc1ccc(N2CC(NC(=O)c3ccco3)CC2=O)cc1 (stereo unspecified) -7.58%
Nc1cc(=O)nc(SCC(=O)Nc2ccc(F)cc2)n1CCc1ccccc1 -16.4%
CCc1cccc(C)c1NC(=O)Cn1c(=O)cc(C)c2c(C)nn(-c3cccc(F)c3)c21 -0.317%
Cc1cccc(CCNC(=O)CCc2c(C)nc3c4c(C)cc(C)nc4nn3c2C)c1 3.66%
